For the test, the system named is V-C8 + BRCA2 (BRCA2-proficient hamster cells). As to the kind of experiment: normalised cell viability (fraction of plate median); higher = more viable cells (less toxic). Particulars: 5 µM. Put shortly:
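Hamster V-C8 cells with and without restored BRCA2 were exposed in 96-well plates to library drugs at 5 μM for 3 days (screen 1) or 6 days (screen 2). Cell viability was scored by resazurin assay, then median-plate normalised, averaging triplicate wells.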

SMILES strings stand for the structures. Structures can show the parent of a compound that is named as a salt. ± gives the standard deviation of the averaged measurements. Over roughly 1,300 compounds, “normalised cell viability” has its median near 1; the lowest 2% begin near 0.15. This is one part of the list.

As for `CCN[C@@H](C)Cc1cccc(C(F)(F)F)c1` [Dexfenfluramine hydrochloride], the normalised cell viability runs as follows: (treatment time: 3 days) 1.02 ± 0.021; (treatment time: 6 days) 1 ± 0.013.

`C[CH2][Hg][S]c1ccccc1C(=O)[O-].[Na+]` [Thimerosal]: the normalised cell viability is, setting by setting: (treatment time: 3 days) 0.106 ± 0.0062; (treatment time: 6 days) 0.118 ± 0.007.

Turning to `C[C@]12CCC(=O)C=C1CC[C@@H]1[C@@H]2C(=O)C[C@]2(C)C(=O)CC[C@@H]12` [Adrenosterone], the normalised cell viability (treatment time: 3 days) came to 1.28 ± 0.097 and the normalised cell viability (treatment time: 6 days) is 1.31 ± 0.097.

Regarding `C[N+]1(C)CCOC(O)(c2ccc(-c3ccc(C4(O)C[N+](C)(C)CCO4)cc3)cc2)C1` (stereo not drawn) [Hemicholinium bromide], the normalised cell viability turned out to be 0.946 ± 0.045 (treatment time: 3 days) and 0.977 ± 0.024 (treatment time: 6 days).

Turning to `O=C(O)CCCc1ccc(N(CCCl)CCCl)cc1` [Chlorambucil], the normalised cell viability (treatment time: 3 days) amounted to 0.924 ± 0.068 and the normalised cell viability (treatment time: 6 days) stood at 0.773 ± 0.19.

For `CC[C@@H](C(N)=O)N1CCCC1=O` [Levetiracetam], the normalised cell viability runs as follows: (treatment time: 3 days) 1.03 ± 0.026; (treatment time: 6 days) 0.987 ± 0.16.

Regarding `COc1ccc(C(=O)N2CCCC2=O)cc1` [Aniracetam], the normalised cell viability is, setting by setting: (treatment time: 3 days) 1.06 ± 0.056; (treatment time: 6 days) 1.11 ± 0.086.

Regarding `CCCN1C[C@H](CSC)C[C@@H]2c3cccc4[nH]cc(c34)C[C@H]21` [Pergolide mesylate], the normalised cell viability is, setting by setting: (treatment time: 3 days) 1.04 ± 0.038; (treatment time: 6 days) 1.04 ± 0.094.

Turning to `CCC(C)C1O[C@]2(C=C[C@@H]1C)C[C@@H]1CC(C/C=C(\C)[C@@H](OC3C[C@H](OC)[C@@H](OC4C[C@H](OC)[C@@H](O)[C@H](C)O4)[C@H](C)O3)[C@@H](C)/C=C/C=C3\COC4[C@H](O)C(C)=CC(C(=O)O1)[C@]34O)O2` (stereo partly drawn) [Avermectin B1a], the normalised cell viability amounted to 0.303 ± 0.021 (treatment time: 3 days) and 0.193 ± 0.025 (treatment time: 6 days).

On to `COc1ccc(CCN)cc1OC` [Homoveratrylamine], for which the normalised cell viability runs as follows: (treatment time: 3 days) 1.04 ± 0.037; (treatment time: 6 days) 1.04 ± 0.043.

Turning to `CC[C@@]1(O)C(=O)OCc2c1cc1n(c2=O)Cc2cc3ccccc3nc2-1` [Camptothecine (S,+)], the normalised cell viability stood at 0.142 ± 0.014 (treatment time: 3 days) and 0.124 ± 0.012 (treatment time: 6 days).

For `CCC(=O)O[C@@](Cc1ccccc1)(c1ccccc1)[C@@H](C)CN(C)C` [Levopropoxyphene napsylate], the normalised cell viability stood at 0.979 ± 0.083 (treatment time: 3 days) and 1.058 ± 0.0096 (treatment time: 6 days).

For `c1ccc2nc(N3CCNCC3)ccc2c1` [Quipazine dimaleate salt], the normalised cell viability by setting is: (treatment time: 3 days) 1.07 ± 0.027; (treatment time: 6 days) 0.959 ± 0.034.

On to `C[N+](C)(C)CCCCCCCCCC[N+](C)(C)C` [Decamethonium bromide], for which the normalised cell viability worked out at 0.946 ± 0.081 (treatment time: 3 days) and 1.04 ± 0.041 (treatment time: 6 days).

Take `CN1C[C@H](C(=O)N[C@]2(C)O[C@@]3(O)[C@@H]4CCCN4C(=O)[C@H](Cc4ccccc4)N3C2=O)C[C@@H]2c3cccc4[nH]cc(c34)C[C@H]21` [Dihydroergotamine tartrate]: the normalised cell viability is 0.974 ± 0.03 (treatment time: 3 days) and 1.03 ± 0.072 (treatment time: 6 days).

As for `C[N+]1(C)[C@@H]2CC[C@H]1C[C@@H](OC(=O)C(CO)c1ccccc1)C2` (stereo partly drawn) [Methylatropine nitrate], the normalised cell viability runs as follows: (treatment time: 3 days) 1.05 ± 0.036; (treatment time: 6 days) 1.05 ± 0.12.

On to `CC(CCc1ccccc1)NC(C)C(O)c1ccc(O)cc1` (stereo not drawn) [Nylidrin], for which the normalised cell viability reads like this: (treatment time: 3 days) 1.02 ± 0.0065; (treatment time: 6 days) 1.02 ± 0.051.

Regarding `COc1cccc(C2(O)CCCCC2CN(C)C)c1` (stereo not drawn) [Tramadol hydrochloride], the normalised cell viability was found to be 1.03 ± 0.05 (treatment time: 3 days) and 0.954 ± 0.054 (treatment time: 6 days).

On to `CC(=O)OC1CN2CCC1CC2` (stereo not drawn) [Aceclidine Hydrochloride], for which the normalised cell viability runs as follows: (treatment time: 3 days) 1.03 ± 0.012; (treatment time: 6 days) 0.942 ± 0.072.

On to `CC(C)N(CCC(C(N)=O)(c1ccccc1)c1ccccn1)C(C)C` (stereo not drawn) [Disopyramide], for which the normalised cell viability by setting is: (treatment time: 3 days) 0.975 ± 0.042; (treatment time: 6 days) 1.07 ± 0.12.

Regarding `C[C@H](N)[C@H](O)c1ccc(O)c(O)c1` [Levonordefrin], the normalised cell viability was 1.05 ± 0.024 (treatment time: 3 days) and 1.01 ± 0.1 (treatment time: 6 days).

For the molecule `O=[N+]([O-])O[C@@H]1CO[C@H]2[C@@H]1OC[C@@H]2O` [Isosorbide mononitrate], the normalised cell viability by setting is: (treatment time: 3 days) 1.02 ± 0.08; (treatment time: 6 days) 1.02 ± 0.011.

With `CN1[C@@H]2CC[C@H]1C[C@@H](OC(=O)[C@H](CO)c1ccccc1)C2` [Hyoscyamine (L)], the normalised cell viability by setting is: (treatment time: 3 days) 0.914 ± 0.081; (treatment time: 6 days) 1 ± 0.04.

Take `C[C@]12CC[C@H]3[C@@H](CCC4=CC(=O)CC[C@@H]43)[C@@H]1CC[C@@H]2O` [Nandrolone]: the normalised cell viability (treatment time: 3 days) came out at 1.05 ± 0.012 and the normalised cell viability (treatment time: 6 days) turned out to be 1.03 ± 0.044.

Regarding `COc1ccc(CN2CCNCC2)c(OC)c1OC` [Trimetazidine dihydrochloride], the normalised cell viability is 1.02 ± 0.039 (treatment time: 3 days) and 1.09 ± 0.042 (treatment time: 6 days).

As to `CC(C)CC(N(C)C)C1(c2ccc(Cl)cc2)CCC1` (stereo not drawn) [Sibutramine HCl], the normalised cell viability runs as follows: (treatment time: 3 days) 0.972 ± 0.022; (treatment time: 6 days) 0.983 ± 0.046.

Take `O=c1[nH]c2ccccc2n1CCCN1CCC(n2c(=O)[nH]c3cc(Cl)ccc32)CC1` [Domperidone]: the normalised cell viability (treatment time: 3 days) was 1.09 ± 0.094 and the normalised cell viability (treatment time: 6 days) came out at 1.16 ± 0.064.

On to `O=C([O-])c1ccccc1-c1c2cc(Br)c(=O)cc-2oc2[c]([Hg+])c([O-])c(Br)cc12.[Na+].[Na+].[OH-]` [Merbromin], for which the normalised cell viability (treatment time: 3 days) is 0.756 ± 0.023 and the normalised cell viability (treatment time: 6 days) came out at 0.642 ± 0.038.

Consider `CC(C)[N+](C)(CCC(C(N)=O)(c1ccccc1)c1ccccc1)C(C)C` [Isopropamide iodide], for which the normalised cell viability (treatment time: 3 days) stood at 1.04 ± 0.062 and the normalised cell viability (treatment time: 6 days) is 1.02 ± 0.11.

As for `C#C[C@]1(O)CC[C@H]2[C@@H]3CCC4=CC(=O)CC[C@]4(C)[C@H]3CC[C@@]21C` [Ethisterone], the normalised cell viability is, setting by setting: (treatment time: 3 days) 1.09 ± 0.029; (treatment time: 6 days) 1.05 ± 0.021.

For the molecule `S=C(NC1CCCCC1)N1CCC(c2cnc[nH]2)CC1` [Thioperamide maleate], the normalised cell viability (treatment time: 3 days) came to 1.02 ± 0.02 and the normalised cell viability (treatment time: 6 days) was found to be 1.05 ± 0.054.

Take `COc1ccc2c(c1)[C@]13CCCC[C@@H]1[C@H](C2)N(C)CC3` [Dextromethorphan hydrobromide monohydrate]: the normalised cell viability runs as follows: (treatment time: 3 days) 1.13 ± 0.078; (treatment time: 6 days) 1.02 ± 0.054.

As to `CNCC(O)c1ccc(O)cc1` (racemic) [(+,-)-Synephrine], the normalised cell viability reads like this: (treatment time: 3 days) 1.01 ± 0.085; (treatment time: 6 days) 1.01 ± 0.022.

In the case of `C[C@]12CC[C@@H](O)C[C@@H]1CC[C@@H]1[C@@H]2CC[C@]2(C)C(=O)CC[C@@H]12` [Androsterone], the normalised cell viability by setting is: (treatment time: 3 days) 1.13 ± 0.054; (treatment time: 6 days) 1.09 ± 0.043.

Values taken from the supplement of paper PMC6609913.
